# Data taken from the supplement of paper PMC8728848.
# Some of the results follow.
# Key:
# Test in all cases: glycan array binding signal (z-score within array); higher = stronger binding
# Settings in all cases: glycan notation: IUPAC condensed, linker removed
# [1] = biological target: Fuc(a1-3)[Gal(b1-4)]GlcNAc(b1-4)Gal(b1-4)[Fuc(a1-3)]GlcNAc
# Summary of the method: (§1)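 Glycan array binding is given as a within-array Z-score, which can be read as non-binding when negative. The arrays, 3228 of them, came from the Consortium for Functional Glycomics database and were retained only where the protein sequence was available. Z-scores were averaged across arrays of the same protein sequence at different concentrations or buffers and across linkers.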
# [2] = biological target: Fuc(a1-3)[Gal(b1-4)]GlcNAc(b1-4)Gal(b1-4)[Fuc(a1-3)]GlcNAc(b1-4)Gal(b1-4)[Fuc(a1-3)]GlcNAc
# Summary of the method: as §1
# [3] = biological target: Fuc(a1-3)[Gal(b1-4)]GlcNAc(b1-6)GalNAc
# Summary of the method: as §1
# [4] = biological target: Fuc(a1-3)[Gal(b1-4)]GlcNAc(b1-6)[Gal(b1-3)GlcNAc(b1-3)]Gal(b1-4)Glc
# Summary of the method: as §1
# [5] = biological target: Fuc(a1-3)[Gal(b1-4)]GlcNAc(b1-6)[Neu5Ac(a2-3)Gal(b1-3)]GalNAc
# Summary of the method: as §1
# [6] = biological target: Fuc(a1-3)[Gal(b1-4)]GlcNAc6S
# Summary of the method: as §1
# [7] = biological target: Fuc(a1-3)[Gal3S(b1-4)]GlcNAc
# Summary of the method: as §1
# [8] = biological target: Fuc(a1-3)[Gal3S(b1-4)]GlcNAc6S
# Summary of the method: as §1
# [9] = biological target: Fuc(a1-3)[GalNAc(b1-4)]GlcNAc
# Summary of the method: as §1
# [10] = biological target: Fuc(a1-3)[GalNAc(b1-4)]GlcNAc6S
# Summary of the method: as §1
# [11] = biological target: Fuc(a1-3)[GalNAc3S(b1-4)]GlcNAc
# Summary of the method: as §1
# Fuc(a1-4)GlcNAc = biological target: Fuc(a1-4)GlcNAc
# Summary of the method: as §1
# Fuc(b1-3)GlcNAc = biological target: Fuc(b1-3)GlcNAc
# Summary of the method: as §1
# Gal(a1-2)Gal = biological target: Gal(a1-2)Gal
# Summary of the method: as §1
# Gal(a1-3)Gal = biological target: Gal(a1-3)Gal
# Summary of the method: as §1
# Gal(a1-3)Gal(b1-3)GlcNAc = biological target: Gal(a1-3)Gal(b1-3)GlcNAc
# Summary of the method: as §1
# [12] = biological target: Gal(a1-3)Gal(b1-3)GlcNAc(b1-2)Man(a1-3)[Gal(a1-3)Gal(b1-3)GlcNAc(b1-2)Man(a1-6)]Man(b1-4)GlcNAc(b1-4)GlcNAc
# Summary of the method: as §1
# [13] = biological target: Gal(a1-3)Gal(b1-3)GlcNAc(b1-3)GalNAc
# Summary of the method: as §1
# [14] = biological target: Gal(a1-3)Gal(b1-3)GlcNAc(b1-6)GalNAc
# Summary of the method: as §1
# [15] = biological target: Gal(a1-3)Gal(b1-3)[Fuc(a1-4)]GlcNAc(b1-2)Man(a1-3)[Gal(a1-3)Gal(b1-3)[Fuc(a1-4)]GlcNAc(b1-2)Man(a1-6)]Man(b1-4)GlcNAc(b1-4)GlcNAc
# Summary of the method: as §1
# Gal(a1-3)Gal(b1-4)Glc = biological target: Gal(a1-3)Gal(b1-4)Glc
# Summary of the method: as §1
# Gal(a1-3)Gal(b1-4)GlcNAc = biological target: Gal(a1-3)Gal(b1-4)GlcNAc
# Summary of the method: as §1
# [16] = biological target: Gal(a1-3)Gal(b1-4)GlcNAc(b1-3)GalNAc
# Summary of the method: as §1
# [17] = biological target: Gal(a1-3)Gal(b1-4)GlcNAc(b1-6)GalNAc
# Summary of the method: as §1
# [18] = biological target: Gal(a1-3)Gal(b1-4)[Fuc(a1-3)]GlcNAc
# Summary of the method: as §1
# [19] = biological target: Gal(a1-3)Gal(b1-4)[Fuc(a1-3)]GlcNAc(b1-2)Man(a1-3)[Gal(a1-3)Gal(b1-4)[Fuc(a1-3)]GlcNAc(b1-2)Man(a1-6)]Man(b1-4)GlcNAc(b1-4)GlcNAc
# Summary of the method: as §1
# Gal(a1-3)GalNAc = biological target: Gal(a1-3)GalNAc
# Summary of the method: as §1
# [20] = biological target: Gal(a1-3)[Gal(a1-4)]Gal(b1-4)GlcNAc
# Summary of the method: as §1
# [21] = biological target: Gal(a1-4)Gal(b1-3)GlcNAc(b1-2)Man(a1-3)[Gal(a1-4)Gal(b1-3)GlcNAc(b1-2)Man(a1-6)]Man(b1-4)GlcNAc(b1-4)GlcNAc
# Summary of the method: as §1
# Gal(a1-4)Gal(b1-4)Glc = biological target: Gal(a1-4)Gal(b1-4)Glc
# Summary of the method: as §1
binder,measurement,setting,value
"CvGal1 (Crassostrea virginica), A7Y0I5 (protein) MTYQISKISQPFTSYIPNGLHIGKHLLLRGRVSYGTEAFAINLQQNPEPCNGEVAFHFNPRPGEQQCVRNSFDGGSWMDEERDQPHFPFDEGRSFTLRIEVAEEGFRTYVNGKPYVNFSHRLDLGNVHYLYLTEGAEFYDISYQDRYTLPYKSEIPQQMNVGKAVRIRGASQDNDGFSVNFACDPDNENCAFHFNPRPNEGVVVRNANLGGWGDEERDYEAEFPFHPYNYFDAMFICTDDKYLVHVNDKYFTEFNHRGGVDASSFFNIVGNLDIQDVEYFEPLEDDFVKTIPSGLVKGDVLIFRGFMKPGGDTFSINFMNGYSVEDDIAFHLNPRVGEGQVVMNCCMGGAWGDEEREDIPSPLADREPFEVKVVVKKNKFKVYVNGKKCMKFAARGNLEDIKGVNIKGEAYVYEVKLERKLEDSWEYLPGGFRVGGWVVVQAIPKKGSEGFAINFRTGSDEDSDIAFHFNPRLQENCTIRNSCAGGAWGGEERDQPDFPFEKKDTCEIAIQAQPDRFVTYVNGKRYIEFNHRLPLESITCVELTGRADFFEPKFF",glycan array binding signal (z-score),[1],-0.258
same,glycan array binding signal (z-score),[2],-0.261
same,glycan array binding signal (z-score),[3],-0.278
same,glycan array binding signal (z-score),[4],-0.299
same,glycan array binding signal (z-score),[5],-0.259
same,glycan array binding signal (z-score),[6],-0.279
same,glycan array binding signal (z-score),[7],-0.246
same,glycan array binding signal (z-score),[8],-0.255
same,glycan array binding signal (z-score),[9],-0.115
same,glycan array binding signal (z-score),[10],-0.215
same,glycan array binding signal (z-score),[11],-0.259
same,glycan array binding signal (z-score),Fuc(a1-4)GlcNAc,-0.286
same,glycan array binding signal (z-score),Fuc(b1-3)GlcNAc,-0.219
same,glycan array binding signal (z-score),Gal(a1-2)Gal,-0.281
same,glycan array binding signal (z-score),Gal(a1-3)Gal,-0.278
same,glycan array binding signal (z-score),Gal(a1-3)Gal(b1-3)GlcNAc,0.435
same,glycan array binding signal (z-score),[12],-0.268
same,glycan array binding signal (z-score),[13],-0.251
same,glycan array binding signal (z-score),[14],-0.168
same,glycan array binding signal (z-score),[15],-0.241
same,glycan array binding signal (z-score),Gal(a1-3)Gal(b1-4)Glc,-0.211
same,glycan array binding signal (z-score),Gal(a1-3)Gal(b1-4)GlcNAc,0.242
same,glycan array binding signal (z-score),[16],-0.197
same,glycan array binding signal (z-score),[17],-0.267
same,glycan array binding signal (z-score),[18],-0.177
same,glycan array binding signal (z-score),[19],0.004
same,glycan array binding signal (z-score),Gal(a1-3)GalNAc,-0.253
same,glycan array binding signal (z-score),[20],-0.215
same,glycan array binding signal (z-score),[21],-0.237
same,glycan array binding signal (z-score),Gal(a1-4)Gal(b1-4)Glc,-0.289
